To fix the notation:
B1: LINE1-full (parent)
chain: UACGUAGGUGGUUUUCCCCUGAUAGUGCUAAGGGGGCCUGGAAGUUUGGACUGGGCAGAGCUCAACACAGCGUGGCAAAGUGGCUGUGGCUAGACUGCCUCUCUGGAUUCCUCGUCACUCAGCAGGGCAUCUCUGAGAGAAAUGCC

The source gives no read counts; variants with many changes may rest on few reads.

The variants in this data set derive from B1. As to the kind of experiment: self-cleavage, relative activity (ratio to wild type); higher = more cleavage; in vitro, sequencing; the parent is a self-cleaving ribozyme.
Consider U20G G60A A64C U87C U96C U119C A129U A140G, for which the self-cleavage was 0. On to U23C A30G U109A, for which the self-cleavage was 0.54. For the variant G21A U62C U130G, the self-cleavage was determined as 0. For U23C G41U U81C U115C U132C the value was 1.12; for G21A U62C U112A, 0.03; for G21A G72A A77C, 0.9.

Turning to A22G U109G U112A U134A, the self-cleavage is 0.

For the variant A22G U47C U100C, the self-cleavage came to 1.67. Consider U23C C56U A69G A79G U104A U109A A142G, for which the self-cleavage stood at 0. For U20G A57G U73A the value was 0.42; for A22U A42U A78G U100C, 1.15; for A22G U109C U119C A140G, 0.92. With A22G A43C U47A U115C A129U, the self-cleavage amounted to 0.66. The value for U20G U100A A107U was 0.65. The value for U23C G49A A69G was 0.75; that for U23C A24G U39C U96A was 1.38.

With A22G C71G A79G U130C A140G, the self-cleavage worked out at 0.51. For A22G G83A U85C U96C C113U G137A the value was 0.04; for U23C G34U A69G A78G U132A, 0.57. For A22G U102C A117U the value was 1.21; for U20C U112C A129U, 0.66; for U23A A30U A117G, 1.08.

Regarding U23C A136G U143C, the self-cleavage turned out to be 2.04. Take A22G G35U A65G: the self-cleavage stood at 0.13.

With A22G U26A G49C U115C, the self-cleavage came to 1.18. For A22U U115C C128U the value was 1.14. The value for A22G A31U A69U G70A U112C was 0.14; that for A22U U62C C90U was 0.03. Consider U23C A42U A64U A65G A69U, for which the self-cleavage is 0.17. In the case of A22U A50G A77G U85A, the self-cleavage stood at 0.04. The value for G21A C38U U132C was 1.92; that for A22G G55A U115A A140G was 0.18. U20G G44A U46A C71A: the self-cleavage is 0.04. A22G U39A A142G: the self-cleavage was determined as 0.84. For U23C U47A A92G C103A the value was 0.16; for A22G A57G U85A, 0.2.

In the case of A22G C63U A129G, the self-cleavage stood at 0.22.

For the variant U20G U29A A69G U132C A141G U143C, the self-cleavage was determined as 1.02.

As for A22G U39C U52C, the self-cleavage is 0.61.

For the variant A22G A78G C116U U119C, the self-cleavage is 0.88. The value for A22G A42G A78G was 0.57. The value for A22U G75A A121G A136G was 1.71; that for U23C G53A U73C U102C A136U was 1.08; that for U23C A31U U87A was 0.11.

As for U20G U46A A129G G144A, the self-cleavage is 0.75. On to A22G A65C A124U, for which the self-cleavage is 0. For A22G U23C U102A C118U the value was 1.02. Regarding A22U U115C A129G C145G, the self-cleavage turned out to be 2.09.

As to A22G A42G U46C, the self-cleavage was 0.46. In the case of U20C U109C A121U, the self-cleavage was 1.28. With A22G U81A A94U U115C, the self-cleavage worked out at 0.42. For A22G U29A A30G A107G the value was 1.08.

For G21A G25A G126A A141G, the self-cleavage was determined as 1.08.

For the variant A22G U102C U130A, the self-cleavage is 2.14. The value for A22G A64G U102C A138G A142G was 0; that for U20G A65G A69G G127A U130C was 0.19; that for U23C A31G A59U A142G was 1.84. The value for A22U G48U A57G C63A was 0.1. U23C U29C G89A: the self-cleavage was found to be 0.07. For A22G U39A A138G the value was 1.9; for G21U U85C U119A A121U G122A, 0.14; for A22G A24G A50C A57U U115A, 0.27. For U23C A57U G75U the value was 0.11; for G21A A69U U73C, 0.11; for A22U U46A U52C, 0.87. The value for A22G U85A G126A was 0.12; that for A22G C131A A142G was 0.56; that for U20G C63U G75A U96A A107U was 0.08.

Regarding U23C A30G U85A A121U, the self-cleavage turned out to be 0.18. As to A22G U87A G114A, the self-cleavage amounted to 0.02. For A22G U45C C51A the value was 1.31; for A22G C63U A92G A142G, 0.19; for U23C U81C A117G A142G, 0. For the variant A22G A30G U115C, the self-cleavage was 0. For U20G A57U U87A U112C U119C the value was 0. For U23C U26A A77G C103U, the self-cleavage came out at 2.28.

On to U23C C61U U108A A121U, for which the self-cleavage is 0.1. For the variant U23C U26C A30U A42G, the self-cleavage was 1.02.

U23C U29C A140G: the self-cleavage was determined as 0.27. For A22U G58A C63U U85C U100A the value was 0.03. A22G C95U G135A: the self-cleavage came out at 0.31. For U23C U96C U132C A140G the value was 0. The value for A22U A31U C66U U81C U108C was 0.13; that for A22G A50C A69G U134A A142G was 0.

For the origin of these results see the RNAGym collection of RNA variant scans (doi:10.7554/elife.90254).
